The record followed here is PubChem BioAssay AID1745853 (National Center for Advancing Translational Sciences (NCATS), 2022).

The other results are listed elsewhere or left out. Further columns of the screen follow, without active or inactive calls.

Assay in all cases: Primary Screen for Target Class Profiling of Small Molecule Inhibitors of Methyltransferases
For assay [1], the target named is Glycine N-methyltransferase (Homo sapiens) (UniProt Q14749). The settings on record: purified enzyme, MTase-Glo SAH luminescence; measured here: GNMT inhibition; at 40 µM; stronger effect = lower value. A digest of the protocol: (§1)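 Each enzyme was assayed with SAM and its substrate. SAH formation detected by MTase-Glo luminescence; single-point 40 uM screen[…].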

Assay [2] concerns the target Guanidinoacetate N-methyltransferase (Homo sapiens) (UniProt Q14353). The settings on record: purified enzyme, MTase-Glo SAH luminescence; measured here: GAMT inhibition; at 40 µM; stronger effect = lower value. A digest of the protocol: as §1
In assay [3] the target is Histamine N-methyltransferase (Homo sapiens) (UniProt P50135). The settings on record: purified enzyme, MTase-Glo SAH luminescence; measured here: HNMT inhibition; at 40 µM; stronger effect = lower value. A digest of the protocol: as §1
The target in assay [4] is Nicotinamide N-methyltransferase (Homo sapiens) (UniProt P40261). The settings on record: purified enzyme, MTase-Glo SAH luminescence; measured here: NNMT inhibition; at 40 µM; stronger effect = lower value. A digest of the protocol: as §1
Assay [5] has as its target Phenylethanolamine N-methyltransferase (Homo sapiens) (UniProt P11086). The settings on record: purified enzyme, MTase-Glo SAH luminescence; measured here: PNMT inhibition; at 40 µM; stronger effect = lower value. A digest of the protocol: as §1
% is scaled to controls: 0 for no effect and ±100 for the full control effect.

On to `COc1ccc(C2c3cccn3-c3ccccc3CN2C(=O)Nc2ccccc2C)cc1OC` (configuration not stated), for which the activity change, negative = inhibition is 7.85% in assay [1]; 1.42% in assay [2]; -0.011% in assay [3]; 2.34% in assay [4]; 6.48% in assay [5].
On to `CCCN(CCC)[C@H]1CCc2c(F)ccc(O)c2C1`, for which the activity change, negative = inhibition in assay [1] was 0.4%; in assay [2], 8.19%; in assay [3] it was -8.69%; in assay [4], -3.64%; in assay [5], 5.82%.
Regarding `CC1c2cccn2-c2ccccc2CN1C(=O)Nc1ccccc1` (configuration not stated), the activity change, negative = inhibition in assay [1] was 4.46%; in assay [2], 5.09%; in assay [3], 4.75%; in assay [4], -2.23%; in assay [5] it was 0.252%.
Take `CSCC(=O)Nc1ccc2n(c1=O)C[C@H]1C[C@@H]2CN(C(=O)CSCC(=O)O)C1`: the activity change, negative = inhibition is -3.56% in assay [1]; -8.92% in assay [2]; -6.5% in assay [3]; -10.1% in assay [4]; -10.5% in assay [5].
As for `CCOC(=O)C1CCC(CNC(=O)N2Cc3ccccc3-n3cccc3C2c2ccccc2)CC1` (configuration not stated), the activity change, negative = inhibition in assay [1] was 11.9%; in assay [2], 2.92%; in assay [3] it was 6.88%; in assay [4] it was 5.62%; in assay [5], 9.27%.
Taken in the same sequence, the figures for `c1ccc2c(c1)OCC(C1=NCCN1)O2` (configuration not stated) were 1.67%, 8.18%, 10.9%, -6.77% and -5.53%.
Take `C[C@]12CC[C@H](O)CC1=CC[C@@H]1[C@@H]2CC[C@]2(C)C(=O)CC[C@@H]12`: the activity change, negative = inhibition in assay [1] is -0.878%; in assay [2] it was 6.48%; in assay [3] it was 8.64%; in assay [4], -10.1%; in assay [5], 4.15%.
Regarding `N#Cc1ccccc1S(=O)(=O)N1C[C@@H]2C[C@H](C1)c1ccc(-c3ccc(Cl)cc3)c(=O)n1C2`, the activity change, negative = inhibition in assay [1] is -15.6%; in assay [2] it was -9.96%; in assay [3], -7.02%; in assay [4], -19.8%; in assay [5] it was -10.7%.
As for `CN(C)c1ccc(C2c3cccn3-c3ccccc3CN2C(=O)Nc2cc(F)ccc2F)cc1` (configuration not stated), the activity change, negative = inhibition in assay [1] came to 15.3%; in assay [2], 2.33%; in assay [3] it was 4.92%; in assay [4], 7.46%; in assay [5] it was 7.98%.
As for `C[C@H]1O[C@@H](O[C@H]2C[C@@H](O)[C@]3(CO)C4C(CC[C@]3(O)C2)[C@@]2(O)CC[C@H](C3=CC(=O)OC3)[C@@]2(C)C[C@H]4O)[C@@H](O)[C@@H](O)[C@H]1O` (some centres not stated), the figures for the activity change, negative = inhibition in assay [1] and in assay [3] were 6.46% and 11%, respectively.
Consider `COc1cccc(NC(=O)N2Cc3ccccc3-n3cccc3C2c2ccccc2C)c1` (configuration not stated), for which the activity change, negative = inhibition is -1.9% in assay [1]; 0.081% in assay [2]; -3.76% in assay [3]; -18.5% in assay [4]; -7.14% in assay [5].
Take `CCOC(=O)c1cccc(NC(=O)N2Cc3ccccc3-n3cccc3C2c2ccccc2Cl)c1` (configuration not stated): the activity change, negative = inhibition in assay [1] came to 10.2%; in assay [2], 0%; in assay [3], 1.76%; in assay [4] it was 2.35%; in assay [5], 4.04%.
Turning to `Cc1cc([C@@H]2CCCN2C)on1`, the activity change, negative = inhibition in assay [1] is -10.7%; in assay [2] it was -0.28%; in assay [3], -4.17%; in assay [4] it was -8.61%; in assay [5] it was 0.749%.
For `CCOc1ccc(C2c3cccn3-c3ccccc3CN2C(=O)Nc2cc(Cl)ccc2OC)cc1` (configuration not stated), in that order: -8.49%, -3.21%, -4.54%, -7.7% and -6.29%.
For `COc1ccc(NC(=O)N2Cc3ccccc3-n3cccc3C2c2ccc(N(C)C)cc2)cc1OC` (configuration not stated), in that order: 2.88%, 0.623%, 1.17%, -2.13% and 1.9%.
With `COc1ccc(C2c3cccn3-c3ccccc3CN2C(=O)NCc2ccc(C)cc2)cc1OC` (configuration not stated), the activity change, negative = inhibition in assay [1] was 11.9%; in assay [2], 0%; in assay [3], 5.71%; in assay [4], 3.05%; in assay [5] it was 4.96%.
For `COc1cccc(NC(=O)N2Cc3ccccc3-n3cccc3C2c2cc(F)cc(F)c2)c1` (configuration not stated), in that order: 4.65%, 0%, 4.01%, 1.44% and -0.03%.
For the molecule `COc1ccc(Cl)cc1NC(=O)N1Cc2ccccc2-n2cccc2C1c1cccs1` (configuration not stated), the activity change, negative = inhibition in assay [1] is 14.9%; in assay [2] it was 5.31%; in assay [3], 7.11%; in assay [4] it was -0.562%; in assay [5], 9.6%.
For the molecule `CCc1nc(C)c(C(=O)N2C[C@@H](c3ccc(F)cc3)[C@@H]3[C@H]2C2CCN3CC2)o1`, the activity change, negative = inhibition is -0.612% in assay [1]; 1.98% in assay [2]; 1.32% in assay [3]; -2.45% in assay [4]; -0.273% in assay [5].
For `CC[C@@H](CO)NC(=O)[C@@H]1C=C2c3cccc4c3c(cn4C)C[C@H]2N(C)C1`, the activity change, negative = inhibition is -44.7% in assay [1]; -12.3% in assay [2]; -13.1% in assay [3]; -22.1% in assay [4]; -63.1% in assay [5].
Turning to `COc1ccc2c(c1)c(CCN(C)C)cn2S(=O)(=O)c1ccccc1`, the activity change, negative = inhibition in assay [1] was -3.31%; in assay [2], 9.3%; in assay [3] it was 2.63%; in assay [4] it was -14.3%; in assay [5], 0.86%.
Take `CNC(=O)c1ccc(N2C(=S)N(c3ccc(C#N)c(C(F)(F)F)c3)C(=O)C23CCC3)cc1F`: the activity change, negative = inhibition in assay [1] was 1.69%; in assay [2], 3.7%; in assay [3], 11.8%; in assay [4], -14.7%; in assay [5] it was 2.25%.
Taken in the same sequence, the figures for `COc1ccc(NC(=O)N2Cc3ccccc3-n3cccc3C2c2ccccc2)cc1` (configuration not stated) were 6.17%, -1.64%, -5.06%, -5.2% and -1.2%.
Regarding `COc1ccsc1CNCC[C@@]1(c2ccccn2)CCOC2(CCCC2)C1`, the activity change, negative = inhibition in assay [1] was 1.62%; in assay [2] it was -4.16%; in assay [3], 4.88%; in assay [4], -13.5%; in assay [5] it was 0.579%.
Consider `CO[C@H]1[C@@H](O)[C@@H](C)O[C@@H](O[C@@H]2C=C3C(OC(C)=O)CC4(O)C(CC[C@]5(C)[C@@H](C6=CC(=O)OC6)CC[C@]45O)[C@@]3(C)CC2)[C@@H]1O` (some centres not stated), for which the activity change, negative = inhibition in assay [1] is 0%; in assay [2], -1.44%; in assay [3] it was -3.77%; in assay [4], -12.1%; in assay [5], -2.63%.
On to `CCC1c2cccn2-c2ccccc2CN1C(=O)Nc1ccc(Br)cc1` (configuration not stated), for which the activity change, negative = inhibition is 2.49% in assay [1]; 4.41% in assay [2]; -0.253% in assay [3]; 2.58% in assay [4]; 5.66% in assay [5].
With `CN(C)c1ccc(C2c3cccn3-c3ccccc3CN2C(=O)Nc2ccc3c(c2)OCCO3)cc1` (configuration not stated), the activity change, negative = inhibition in assay [1] was 7.54%; in assay [2], 1.04%; in assay [3], 2.47%; in assay [4] it was -0.585%; in assay [5] it was 5.23%.
In the case of `COc1ccc2c(c1OC)CN1CCc3cc4c(cc3C1C2)OCO4` (configuration not stated), the activity change, negative = inhibition is -11.8% in assay [2], -28.4% in assay [4] and -6.14% in assay [5].
In the case of `COc1ccc(C2c3cccn3-c3ccccc3CN2C(=O)Nc2ccccc2OC)cc1` (configuration not stated), the activity change, negative = inhibition in assay [1] worked out at 14.1%; in assay [2], 4.39%; in assay [3], 4.94%; in assay [4], 7.62%; in assay [5], 10.9%.
Consider `CCCCCCC1C(=O)O[C@H](C)[C@H](NC(=O)c2cccc(NC=O)c2O)C(=O)O[C@@H](C)[C@@H]1OC(=O)CC(C)C` (some centres not stated), for which the activity change, negative = inhibition in assay [1] is -24.1%; in assay [3], 0.984%.
